SMILES strings stand for the structures. Hit rate of the full screen: of about 310,000 compounds, about 14,000 (4.5%) showed an effect of 50% or more. Effects have a minus sign here. The list shows a part of the results.
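Note: peak tail current of the secondary pulse compared with the same well before compound.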

The target of this assay is human ether-à-go-go-related gene (hERG) potassium channel (human, UniProt Q12809). Description: primary screen, population patch clamp on CHO cells stably expressing hERG.
Sequence of human ether-à-go-go-related gene (hERG) potassium channel (Q12809 whole entry, looked up): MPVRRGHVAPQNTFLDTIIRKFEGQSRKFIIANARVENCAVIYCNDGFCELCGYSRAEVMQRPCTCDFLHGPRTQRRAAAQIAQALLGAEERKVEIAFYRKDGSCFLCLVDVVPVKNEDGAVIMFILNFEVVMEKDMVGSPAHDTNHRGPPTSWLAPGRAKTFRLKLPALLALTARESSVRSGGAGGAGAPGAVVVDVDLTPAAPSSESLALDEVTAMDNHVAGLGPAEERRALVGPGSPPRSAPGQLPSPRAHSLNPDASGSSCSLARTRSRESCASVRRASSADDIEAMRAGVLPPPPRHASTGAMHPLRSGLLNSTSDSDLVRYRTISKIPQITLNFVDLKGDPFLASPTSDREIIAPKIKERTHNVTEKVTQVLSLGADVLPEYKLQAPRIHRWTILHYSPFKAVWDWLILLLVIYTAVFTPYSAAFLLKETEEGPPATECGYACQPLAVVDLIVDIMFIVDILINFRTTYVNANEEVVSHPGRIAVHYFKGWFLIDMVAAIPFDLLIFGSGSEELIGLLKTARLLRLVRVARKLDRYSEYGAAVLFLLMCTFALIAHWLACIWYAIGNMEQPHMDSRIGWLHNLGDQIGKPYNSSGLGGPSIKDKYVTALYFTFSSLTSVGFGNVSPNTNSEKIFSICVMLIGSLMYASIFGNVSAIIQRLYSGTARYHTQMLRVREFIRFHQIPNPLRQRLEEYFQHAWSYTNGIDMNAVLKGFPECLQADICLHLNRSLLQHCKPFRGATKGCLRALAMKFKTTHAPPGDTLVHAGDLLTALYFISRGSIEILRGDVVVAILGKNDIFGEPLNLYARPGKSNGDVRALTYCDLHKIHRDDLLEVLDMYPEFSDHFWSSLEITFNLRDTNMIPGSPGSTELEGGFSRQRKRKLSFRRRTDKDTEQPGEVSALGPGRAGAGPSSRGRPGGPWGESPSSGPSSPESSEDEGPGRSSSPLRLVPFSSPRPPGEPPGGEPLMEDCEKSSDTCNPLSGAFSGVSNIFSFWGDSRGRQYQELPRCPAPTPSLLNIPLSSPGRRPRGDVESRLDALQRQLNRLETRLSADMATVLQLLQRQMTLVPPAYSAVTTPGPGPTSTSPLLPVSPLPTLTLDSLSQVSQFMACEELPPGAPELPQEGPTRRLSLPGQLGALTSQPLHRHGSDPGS
For `COc1cc(NC(=O)n2ncc3cc(Cl)ccc32)cc(OC)c1`, the “hERG current change (%, negative = inhibition) at 10uM” value is 21.3%.
With `COc1ccc(NC(=O)C(=O)N2N=C3CCCCC3C2(O)C(F)(F)F)cc1` (centres unmarked) the figure was 7.19%; with `COC(CNC(=O)c1ccc2nc(-c3cccs3)c(-c3cccs3)nc2c1)OC`, 10.9%.
On to `CCc1nc(C)cn1S(=O)(=O)c1ccc(Br)cc1`, for which the “hERG current change (%, negative = inhibition) at 10uM” value came to 15.3%.
As for `Cc1ccc(Cl)cc1NC(=O)C1CCCN(S(C)(=O)=O)C1` (centres unmarked), the “hERG current change (%, negative = inhibition) at 10uM” value is given as 6.63%.
With `COc1ccc(-c2cc(C(=O)O)c3ccccc3n2)c(OC)c1` the figure was 11.9%.
For `O=C(CSc1nncn1-c1cccnc1)Nc1cccc(C(F)(F)F)c1`, the “hERG current change (%, negative = inhibition) at 10uM” value is listed as -57.7%.
With `COC(=O)/C(=N/Nc1ccccc1)N1CCCc2ccccc21` the figure was -10%.
With `Cn1c(=O)cc(N2CCN(C(=O)c3ccco3)CC2)[nH]c1=O` the figure was 13.1%; with `O=C(COC(=O)COc1ccccc1)Nc1ccccc1OC(F)F`, 2.06%; with `C=CCn1c(CNC(=O)c2ccco2)nnc1SCC(=O)Nc1cccc(F)c1`, -19.7%.
With `Cc1cccc(NC(=O)CSc2nnc(-c3ccc(S(=O)(=O)N4CCCC4)cc3)o2)c1` the figure was -5.59%; with `Cc1cc(C(=O)OCC(=O)NC2CCC(C)CC2)c(C)o1` (centres unmarked), 10.8%.
Regarding `O=C(ON=C1CCN(S(=O)(=O)c2ccccc2)CC1)c1ccccc1`, the “hERG current change (%, negative = inhibition) at 10uM” value is on record as -31.6%.
In the case of `Cc1ccc(S(=O)(=O)NCC(=O)OCC(=O)NCc2cccs2)cc1`, the “hERG current change (%, negative = inhibition) at 10uM” value is recorded as -3.82%.
With `CCCNc1ncnc2sc(C)c(C)c12` the figure was -1.05%; with `CCOC(=O)C1CCN(S(=O)(=O)c2ccc(NC(=O)c3ccco3)cc2)CC1`, -46.3%.
In the case of `CCCc1cc(=O)[nH]c(SCC(=O)Nc2cc(S(=O)(=O)N3CCCCC3)ccc2C)n1`, the “hERG current change (%, negative = inhibition) at 10uM” value is listed as -7.69%.
With `COCCNC(=S)Nc1ccc([N+](=O)[O-])cc1C` the figure was 32.5%.
With `COC(=O)[C@@H](NC(=O)NCc1cccs1)C(C)C` the figure was -1.33%; with `Cc1nn(-c2ccccc2)c(C)c1C(=O)OCC(=O)NCc1ccco1`, -3.98%.
With `CCCC(=O)NC(=S)Nc1c(C)cc(Br)cc1C` the figure was -8.92%; with `CCCCC1NC(=S)N(C2CCCCC2)C1=O` (centres unmarked), -8.35%.
Regarding `CCOC(=O)C1(Cc2ccccc2C)CCCN(C(=O)c2ccc(COC)o2)C1` (centres unmarked), the “hERG current change (%, negative = inhibition) at 10uM” value is given as -7.74%.
With `O=C(COC(=O)c1cncc(Br)c1)NCc1ccccc1` the figure was 5.94%; with `COc1ccc(CNc2nc3ccc(C)cc3s2)c(OC)c1OC`, -33.9%; with `Cc1ccc(C)c(CN2C(=O)CSc3ccc(C(=O)N4CCCC4)cc32)c1`, -17%.
With `CCCCn1c(NS(=O)(=O)c2ccccc2)c(S(=O)(=O)c2ccc(C)cc2)c2nc3ccccc3nc21`, the “hERG current change (%, negative = inhibition) at 10uM” value is -0.162%.
In the case of `O=c1c2cc(N3CCOCC3)ccc2[nH]c(=S)n1Cc1ccco1`, the “hERG current change (%, negative = inhibition) at 10uM” value is recorded as -25.1%.
With `O=C(OCc1ccccc1F)c1ccc2c(c1)-c1ccccc1C2=O` the figure was 16.4%.
With `Cc1c(CNC(=O)C2CC2)c(-n2cccc2)n(Cc2ccccc2)c1C` the figure was 27.1%.
With `COc1cc(-c2nc3n(n2)C(c2cccc(OC)c2OC)C2=C(CCCC2=O)N3)cc(OC)c1OC` (centres unmarked) the figure was -16.1%; with `COc1ccc2nc(SCC(=O)N(C)CC(=O)Nc3ccc(F)cc3)[nH]c2c1`, -15.2%; with `Clc1ccccc1/C=C/C=N/Nc1nc(N2CCOCC2)nc(N2CCOCC2)n1`, -58.4%.
Take `CCCn1nc(NS(C)(=O)=O)c2cc3cccc(C)c3nc21`: the “hERG current change (%, negative = inhibition) at 10uM” value came to 6.04%.
`Cl.NC(=NC1CCCCC1)c1ccc([N+](=O)[O-])cc1`: the “hERG current change (%, negative = inhibition) at 10uM” value is given as -57.2%.
With `c1ccc(-c2nccc(-c3ccc(-n4cnc5ccccc54)cc3)n2)nc1` the figure was -46.6%; with `Cc1cc(C(F)F)n2nc(C(=O)Nc3cccc(S(=O)(=O)N4CCOCC4)c3)nc2n1`, -8.28%.
Regarding `O=C(NCC(=O)N(c1cccnc1)C(C(=O)NC1CCCC1)c1ccccc1F)c1ccco1` (centres unmarked), the “hERG current change (%, negative = inhibition) at 10uM” value is given as -0.301%.
Regarding `COc1cc(CCC(=O)OCC(=O)Nc2ccccc2F)cc(OC)c1OC`, the “hERG current change (%, negative = inhibition) at 10uM” value is listed as 23.1%.
With `COc1ccc(S(=O)(=O)N2CCCCC2)cc1NC(=O)Cc1sc(C)nc1-c1ccc(F)cc1` the figure was -3.53%; with `N#CCCn1c(SCC(=O)NCCc2ccc(F)cc2)nc2ccccc21`, -27.7%; with `CC(Cc1ccccc1)NC(=O)CC(c1ccccc1)c1ccccc1O` (centres unmarked), 4.42%.
With `CN(C)S(=O)(=O)n1cc(/C=C(\NC(=O)c2ccccc2)C(=O)NCCCN2CCOCC2)c2ccccc21` the figure was 10%.
